The source gives no read counts; variants with many changes may rest on few reads.

Sequences and labels used below:
B1: CPEB3 Ribozyme (parent)
chain: UAACAGGGGGCCACAGCAGAAGCGUUCACGUCGCAGCCCCUGUCAGAUUCUGGUGAAUCUGCGAAUUCUGCUGUAUAUCUC

The series covers variants of B1. Kind of series: self-cleavage, relative activity (ratio to wild type); higher = more cleavage; in vitro, sequencing. The method, boiled down: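 For each CPEB3 ribozyme variant, relative activity is its cleaved/total read fraction divided by the unmutated ribozyme's. Barcoded error-prone PCR libraries were transcribed by T7 RNA polymerase (5 hours, 37°C) and held in DNase I for 15 min before an EDTA stop, with cleavage occurring throughout. Template-switching reverse transcription and Illumina sequencing were used to read the RNAs. A 5-read minimum applied, and results are the mean of three batches.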
As to UAACAGGGGACCACAGCAGAAGCGUUCACGUCGCUGCCCCUGUCAGAUUCUGGUGAGUCUGCGAAUUCUGCUGUAUAUCUC [G10A A35U A57G], the self-cleavage is 0.27.

Consider UAACAGGGGACCACAGCUGAAGCGUUCACGUCGCAGCCACUGUCAGAUUCUGGUGAAUCUGCGAAUUCUGCUGCCUAUCUC [G10A A18U C39A U74C A75C], for which the self-cleavage was found to be 0.15.

Turning to UAACAGGGGACCACAGCAGGAGCGUUCACGUCGCAGCCCCUGUCAGAUCCUGGUGAAUCUGCGAAUUCUGCUGUAUAUCUC [G10A A20G U49C], the self-cleavage was determined as 0.08.

Regarding UAACAGGGGACCACAGCGGAAGCGUUCACGUCGCAGCCCCUGUCAGACUCUGGUGAAUCUGCGAAUUCAGCUGUAUAUCUC [G10A A18G U48C U69A], the self-cleavage worked out at 0.19.

Regarding UAACAGGGGACCACAGCAGUAGCGUUCACGUCGCAGCCCCUGCCAGAUUCUGGUGAAUCUGCGAAUUCUGCUGUAUAUCUC [G10A A20U U43C], the self-cleavage stood at 0.04.

Consider UAACAGGGGACCACAGCAGAAGCGUUCGCGUCGCAGCCCCUGUCGAAUUCUGGUGAAUCUGCGAAUUCUGCUGUAUAUCUC [G10A A28G A45G G46A], for which the self-cleavage came to 0.16.

UAACAGGGGACCACAGCAGAAGCGUUCACGUCGCUGCCCCUGUCAGAUUCUGGUGAGUCUGCCAGUUCUGCUGUAUAUCUC [G10A A35U A57G G63C A65G]: the self-cleavage was found to be 0.13.

Take UAACAGGGGACCACAGCAGGAGCGUUCACGUCGCAGCCCCUGUCAGAUUCUGGUGAAUCUACGAAUUCUGCCGUAUAUCUC [G10A A20G G61A U72C]: the self-cleavage came out at 0.04.

UAACAGGGGACCACAGCAGGAGCGUUCACGUCGCAGCCCCUGUCAGAAUCUGGUGAAUCUGCGAAUUCUGCUGUAUAUCUC [G10A A20G U48A]: the self-cleavage was determined as 0.25.

On to UAACAGGGGACCACAGCAGAUGCGUUCACGUCGCAGCCCCCGUCAGAUUCUGGUGAAUCUGCGAAUUCUGCUGUAUAUCUC [G10A A21U U41C], for which the self-cleavage turned out to be 0.05.

Consider UAACAGGGGACCACAGCUGAAGCGUUCACGUCGCAGCCCCAGUCAGAUUCAGGCGAAUCUGCGAAUUCUGCUGUAUAUCUC [G10A A18U U41A U51A U54C], for which the self-cleavage is 0.05.

For the variant UAACAGGGGACCACAGCAGUAGCGUUCACGUCGCAGCCCCUGUCAGAUUGUGGCGAAUCUGCGAAUUCUGCUGCAUAUCUC [G10A A20U C50G U54C U74C], the self-cleavage was found to be 0.06.

As for UAACAGGGGACCACAGCAGAGGCGUUCACGUCGCAGCCCCUGUCAGAUUCUGGUGAAUCUGCGGAUUCAGCUGUAUAUCUC [G10A A21G A64G U69A], the self-cleavage is 0.07.

On to UAACAGGGGACCACAGCUGAAGCGUUCACGUAGCAGCCUCUGUCAGAUUCUGGUGGAUCUGCGAAUUCUGCUGUAUAUCCC [G10A A18U C32A C39U A56G U80C], for which the self-cleavage was 0.06.

As for UAACAGGGGACCACAGCAGAAGCGUUCACGUCGCAGCCCCUGUCGGAUUCUGGUGAAUCUGCGAACUCCGCUGUAUAUCUC [G10A A45G U66C U69C], the self-cleavage is 0.19.

For UAACAGGGGACCACAGCAGGAGCGUCCACGUCGCAGCCCCUGUCAGAUUCUGGUGAAUCUGCGAAUCCUGCUGUAUAUCUC [G10A A20G U26C U67C], the self-cleavage stood at 0.05.

UAACAGGGGACCACAGCAGGGGCGUUCACGUCGCAGCCCCUGUCAGAUUCUGGUGAAUCUGCGAAUUCUGCUGUAUAUCUC [G10A A20G A21G]: the self-cleavage is 0.33.

As for UAACAGGGGACCACAGCAGAAGCGUUCACGUCGCAGCCCCUGUCUGAUUCUGGUGUAUCUGCGAAUUCUGCUGUAUAUCUC [G10A A45U A56U], the self-cleavage came out at 0.12.

Take UAACAGGGGACCACAGCAGAGACGUCCACGUCGCAGCCCCUGUCAGAUUCUGGUGAAUCUGCGAAUUCUGCUGUAUAUCUC [G10A A21G G22A U26C]: the self-cleavage stood at 0.1.

UAACAGGGGACCACAGCAGUAGCGUUCGCGUCGCAGCCCCUGUCAGAUUCUGGUGAAUCUGCGAAUUCUGCUGUAUAUCUC [G10A A20U A28G]: the self-cleavage is 0.05.

Turning to UAACAGGGGACCACAGCUGUAGCGUUCACGCCGCAGCCCCUGUCAAAUUCUGGUGAAUCUGCGAAUUCUGCUGUAUAUCUC [G10A A18U A20U U31C G46A], the self-cleavage worked out at 0.16.

On to UAACAGGGGACCACAGCAGAAGCGUUCACGUCGCGGCCCCUGUCAGAUUCUGGUGAGUCUGCGAAUUCUGCUGUAUAUCUC [G10A A35G A57G], for which the self-cleavage was 1.08.

Consider UAACAGGGGACCACAGCGGAAGCGUUCACGUCGCAGCCCCUGUCAGACUCUGGUGAAUAUGCGAAUUUUGCUGUAUCUCUC [G10A A18G U48C C59A C68U A77C], for which the self-cleavage is 0.09.

For the variant UAACAGGGGACCACAGCUGAAGCGUUCUGGUCGCAGCCCCUGUCAGAUUCUGGGGGAUCUGCGAAUUCUGCUGUAUAUUUC [G10A A18U A28U C29G U54G A56G C79U], the self-cleavage came out at 0.04.

Regarding UAACAGGGGACCACAGCAGAGGCGUUCACGUCGCGGCCCCUGUCGGAUUCUGGUGAAUCUGCGAAUUCUGCUGUAUAUCUC [G10A A21G A35G A45G], the self-cleavage came out at 0.31.

For UAACAGGGGACCACAGCAGAAGCGUUCUCGUCGCAGCCCCUGUCAGAUUCUGGUGAAUCUGCGUAUUCUGCUGUAUAUCUC [G10A A28U A64U], the self-cleavage was 0.3.

For UAACAGGGGACCACAGCAGAAGCGUUCACGUCGCAGCCCCUGUCGGAUUCUGGUGAAUCUGCGAAUUAUGCUGUAUAUCUC [G10A A45G C68A], the self-cleavage worked out at 0.07.

For UAACAGGGGACCACAGCAGAGGCGUCCACGUCGCAGCCCCUGCCAGAUUCUGGUGAAUCUGCGAAUUCUGCUGUAUAUCUC [G10A A21G U26C U43C], the self-cleavage was 0.23.

For the variant UAACAGGGGACCACAGCAGGAGCGUUCACGUCGCAGCCCCUGUCAGAUUCUGGUGAAUCUGCGAGCUCUGCUGUAUAUCUC [G10A A20G A65G U66C], the self-cleavage is 0.05.

As for UAACAGGGGACCACAGCAGAAGCGUUCACGUCGCCGCCCCUGUCAGAUUCUGGUGAAUCUGCGGAUUCUGCUGUAUAUCCC [G10A A35C A64G U80C], the self-cleavage worked out at 0.12.

On to UAACAGGGGACCACAGCAGAGGCGUCCACGUCGCAGCCCCUGUCAGAUUCUGGUGAAUCUGCGUAUACUGCUGUAUAUCUC [G10A A21G U26C A64U U67A], for which the self-cleavage came to 0.06.

Take UAACAGGGGACCACAGCAGGAGCGUUCACGUCGCAGCCCCCGUCAGAUCCUGGUGAAUCUGCGAAUUCUGCCGUAUAUCUC [G10A A20G U41C U49C U72C]: the self-cleavage stood at 0.1.

Regarding UAACAGGGGACCACAGCAGAUGCGUUCACGUCGCAGCCCCUGUCAGAUUCUGGUGAAUCUGCGAUCUCUGCUGUAUAUCUC [G10A A21U A65U U66C], the self-cleavage was 0.04.

With UAACAGGGGACCACAGCAGAAGCGUUCACGUCGCAGCCCCUGUCGGAUUCUGGUGAAUCUGCGAAUUCUGCUGUAUAUCCC [G10A A45G U80C], the self-cleavage turned out to be 0.06.

The record behind these values is the RNAGym collection of RNA variant scans (doi:10.1093/nar/gkz1192).
